{
  "source": "PubChem BioAssay AID1347417",
  "about": "(National Center for Advancing Translational Sciences (NCATS), 2020)",
  "note": "Among all 120,000 compounds or so, about 5,300 (4.4%) were called active. The shares of active, inactive and inconclusive entries below differ from those in the screen. The call rests on the fitted dose curve; in most records, active means well fitted inhibition curve with a large enough effect; inconclusive means small, poorly fitted or top-dose-only effect; inactive means no such curve, though single readings can be large or run the other way. Where the call is inconclusive, the potency comes from a doubtful curve fit. Potency means the concentration at half of the fitted maximal effect; tags describe the fitted curve by direction and shape.",
  "data": [
    {"experiment": "qHTS Primary assay for Inhibitors of Plasmodium falciparum Dd2 growth in vitro; further: nearly all actives have a fitted effect of over 65% in size", "conditions": "P. falciparum Dd2 growth, SYBR Green, 72 h; series mostly up to 28.9 µM", "method_in_brief": "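Readout: SYBR Green fluorescence, 485 nm excitation, 535 nm emission, after ~16 h lysis at 37C. Before that, Dd2-infected red cells (2.5% hematocrit) grew 72 h with compound, 29 uM top final concentration.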", "values": [
      {"molecule": "COc1ccc(-c2noc(-c3cccn3CC(=O)NCCc3ccccc3)n2)cc1F", "Potency": "active: 0.251 µM"},
      {"molecule": "CC(C)N1C(=O)C2(CCCCC2)C1C(=O)NCCCN1CCN(C)CC1", "note": "(stereo unspecified)", "Potency": "inactive"},
      {"molecule": "COc1cc(Cl)c(C)cc1NC(=O)c1cnn(-c2ccc(F)cc2F)c1C1CCN(C(=O)OC(C)(C)C)CC1", "Potency": "inconclusive: 11.2 µM [inhibitor, single point]"},
      {"molecule": "O=C(c1ccn[nH]1)N1C[C@@H](COCC2CC2)[C@H](c2ccncc2)C1", "Potency": "inactive"},
      {"molecule": "CCOC(=O)c1c(NC(=O)COc2ccccc2Br)sc2c1CCCCC2", "Potency": "inconclusive: 17.8 µM [inhibitor, single point]"},
      {"molecule": "Cc1cc(C)cc(C(=O)NCc2nnc3c(-c4nc(C5CC5)no4)cccn23)c1", "Potency": "inactive"},
      {"molecule": "O=C(C1CCCC1)N1CCC(Oc2ccccc2)C1", "note": "(stereo unspecified)", "Potency": "inactive"},
      {"molecule": "COc1ccc(C(=O)N2CCC3(CC2)NC(=O)N(c2ccc(F)cc2)N3)cc1", "Potency": "inconclusive: 12.6 µM [inhibitor, single point]"},
      {"molecule": "COc1cccc(CSc2nc(-c3ccccc3F)nc3c2Cc2c(CO)cnc(C)c2O3)c1", "Potency": "inconclusive: 12.6 µM [inhibitor, single point]"},
      {"molecule": "COc1ccc(-n2nc3c(N4CCC(C(=O)NCCc5ccccc5)CC4)nnc(C)c3c2C)cc1", "Potency": "inconclusive: 10 µM [inhibitor, single point]"},
      {"molecule": "O=C(CSc1nnc(-c2cccc(F)c2)c(-c2cccc(F)c2)n1)NC1CCCCC1", "Potency": "inconclusive: 17.8 µM [inhibitor, single point]"},
      {"molecule": "O=C(COc1ccccc1)NC[C@H]1COCc2nc3cccnc3n21", "Potency": "inactive"},
      {"molecule": "CCc1nc(-c2c3n(c(=O)n(Cc4cccc(C#N)c4)c2=O)CCCCC3)no1", "Potency": "inconclusive: 8.91 µM [inhibitor, partial curve, poor fit]"},
      {"molecule": "COc1ccc(-c2ccc(NS(=O)(=O)c3ccc(OC)c(OC)c3)cc2)nn1", "Potency": "inconclusive: 8.91 µM [inhibitor, single point]"},
      {"molecule": "O=C(Cn1nc2c(cc1=O)CCCCC2)Nc1nc(-c2ccncc2)cs1", "Potency": "inactive"},
      {"molecule": "CN(Cc1cccc(C(F)(F)F)c1)C(=O)Nc1ccc(Cl)cc1", "Potency": "inactive"},
      {"molecule": "O=C(N[C@H]1CCN2C(=O)c3cc(-c4ccccc4)ccc3NC(=O)[C@H]12)c1cccs1", "Potency": "inconclusive: 0.794 µM [inhibitor, partial curve, poor fit]"},
      {"molecule": "Cc1cccc(C(=O)N2C(C(=O)N3CCOCC3)COC23CCN(C(=O)CC(C)(C)C)CC3)c1", "note": "(stereo unspecified)", "Potency": "inactive"},
      {"molecule": "CN(C)C(=O)CN1C(=O)CO[C@H](c2ccc(NC(=O)c3ccc(F)c(Cl)c3)cc2)[C@H]1CO", "Potency": "inactive"},
      {"molecule": "CCC(=O)N1CCc2cc(Br)cc(S(=O)(=O)N3CCCC(C(=O)Nc4ccc(C(C)C)cc4)C3)c21", "note": "(stereo unspecified)", "Potency": "inconclusive: 8.91 µM [inhibitor, partial curve, poor fit]"},
      {"molecule": "CCN1CCc2nc3sc(C(=O)Nc4cccc(Cl)c4C)c(N)c3cc2C1", "Potency": "inconclusive: 17.8 µM [inhibitor, single point]"},
      {"molecule": "CN(C)c1cccc(C(=O)N2CCn3nc(Cc4ccccc4)cc3C2)c1", "Potency": "inconclusive: 7.94 µM [inhibitor, partial curve, poor fit]"},
      {"molecule": "Cc1ccccc1Cn1cc(C(=O)N2CCN(C3CCCCC3)C(=O)C2)nn1", "Potency": "inconclusive: 17.8 µM [inhibitor, partial curve, poor fit]"},
      {"molecule": "Cn1cc(-c2ccc(F)cc2)cc1C(=O)NCCCN1CCCCC1", "Potency": "inconclusive: 12.6 µM [inhibitor, partial curve, poor fit]"},
      {"molecule": "CCN1CCN(CCCNC(=O)c2cnn(-c3ccc(C)cc3C)c2C2CCN(C(=O)OC(C)(C)C)CC2)CC1", "Potency": "inconclusive: 3.98 µM [inhibitor, single point]"},
      {"molecule": "O=S(=O)(c1ccc(Br)cc1)c1nnn2c1nc(N1CCOCC1)c1sccc12", "Potency": "inconclusive: 17.8 µM [inhibitor, single point]"},
      {"molecule": "COc1ccc(-c2ccnc(N[C@H]3CO[C@H]4[C@@H]3OC[C@H]4OCC(=O)N(C)C)n2)cc1", "Potency": "inconclusive: 15.8 µM [inhibitor, single point]"},
      {"molecule": "COc1ccc(CN2CCNc3cc(-c4ccnc(C)c4)ncc3C2)cc1", "Potency": "inactive"},
      {"molecule": "CCCNC(=O)C1COC2(CCN(C(=O)c3ccc(F)cc3)CC2)N1C(=O)c1ccccc1", "note": "(stereo unspecified)", "Potency": "inactive"},
      {"molecule": "Cc1c(C(=O)NCc2cccc(Cl)c2)sc2nc3n(c(=O)c12)CCC3", "Potency": "inconclusive: 8.91 µM [inhibitor, partial curve]"},
      {"molecule": "Cc1cn2c(=O)cc(COc3ccccc3NC(=O)c3ccco3)nc2s1", "Potency": "inactive"},
      {"molecule": "O=C(NC1CCCN(c2cc(-c3ccccc3)[nH]n2)C1)c1cc(F)ccc1F", "note": "(stereo unspecified)", "Potency": "inconclusive: 0.316 µM [inhibitor, full curve, poor fit]"},
      {"molecule": "COc1ccc(NC(=O)C(=O)NCCc2csc(-c3ccc(Cl)cc3)n2)cc1OC", "Potency": "inconclusive: 12.6 µM [inhibitor, single point]"},
      {"molecule": "Cc1ccc(C(=O)N2CCCCCCNC(=O)[C@@H]3C[C@@H](c4nc(Cc5ccccc5)no4)C[C@@H]32)s1", "Potency": "inconclusive: 7.94 µM [inhibitor, partial curve, poor fit]"},
      {"molecule": "COc1ccccc1NC(=O)C(=O)NCC(c1ccc2c(c1)OCO2)N1CCN(C)CC1", "note": "(stereo unspecified)", "Potency": "inconclusive: 11.2 µM [inhibitor, single point]"},
      {"molecule": "O=C1COc2ccc(-c3ccc4c(c3)OCO4)nc2CN1Cc1ccc(C(F)(F)F)cc1", "Potency": "inconclusive: 14.1 µM [inhibitor, single point]"},
      {"molecule": "COCCN1CC(C(=O)NCCOc2ccccc2)CCC1=O", "note": "(stereo unspecified)", "Potency": "inactive"},
      {"molecule": "COCCCNC(=O)N1CCc2nn(CC3CC3)c(=O)n2CC1", "Potency": "inactive"},
      {"molecule": "Cc1ccc(C2c3cc(OCc4nc(C(=O)N5CCCC5)co4)ccc3CCN2C(=O)C2CC2)cc1", "note": "(stereo unspecified)", "Potency": "inconclusive: 2.82 µM [inhibitor, single point]"},
      {"molecule": "CCCC(=O)NCC1(N(C)C)CCCCC1", "Potency": "inconclusive: 0.112 µM [inhibitor, full curve, poor fit]"},
      {"molecule": "CN(C)C[C@@H]1CN(c2ncccn2)C[C@H]1NS(=O)(=O)c1cc(F)ccc1F", "Potency": "inconclusive: 7.08 µM [inhibitor, partial curve, poor fit]"}
    ]}
  ]
}
